# Some of the results follow.
# Tested on: PF3D7_0420300 AP2 domain 1 (GST-tagged)
# Assay: gcPBM binding intensity (ln(normalized median fluorescence intensity)); higher = stronger DNA binding
# Procedure, shortened: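 After 1 h on an Agilent 4 × 180k array of primer-extended double-stranded 36-bp intergenic genomic probes and negative controls, bound GST-tagged P. falciparum DNA-binding domains were detected with Alexa488 anti-GST antibody and scanned at 488 nm. The domains had been expressed in E. coli, and binding took place in 1× PBS with 1% milk, 0.2 mg/ml BSA, 0.5% salmon testes DNA and 0.03% Triton X-100. Binding intensity is the highest Masliner-normalised natural-log median intensity across replicate spots of either probe orientation.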
row,Sequence,gcPBM binding intensity (ln)
1,AAGAATAATAATAAATGTACACAATATTATATATAT [XGTACX_site5525],9.36
2,TGCAAGCTTATATAGGTGCACATGTATACGTGTTCA,9.21
3,TATTAAAATTAAAAAAAAAAAAAAAAGCAATAAAAA [XGTACX_negctrl_site426],9.3
4,TATATACACAAACACACACACACATACACCCACATA [CACACA_site8504],10.3
5,TATGTAGTCACAAGGTGTACACTTTAACAAATTATG [XGTACX_site8792],9.09
6,AATTATATATTTGAGAGTACATATGTAATGTTTATA [XGTACX_site6970],9.23
7,GTGCATATCTGATATACACACAATAAAATAGTATGT [CACACA_site7203],9.33
8,CATATATTATTTATACGTACTAATAAAATAAATCAA [XGTACX_site1030],9.08
9,TATGATACATAAATATGTACGTATAATATATATTTA [XGTACX_site7002],9.12
10,CCCGTAAATTATGAGTGTACGTTATTTTTTAAAATG [XGTACX_site3946],9.06
11,ACATATACATATATATGTACATAAATATATATATAT [XGTACX_site8630],9.17
12,AAAAAATAATAAATCACACATATTATATATATATAT [CACACA_site5838],9.28
13,AACATGAAAGATAGCAAAAAAAAAAAAAAAAAAAAA [TGCATGCA_negctrl_site607],8.42
14,TCTTTTTTTATTTTATTTTTTTTTTTTAAATAATTC [TGCATGCA_negctrl_site372],9.09
15,CATATTAATATTATGGGTACATATAAATTTACATTC [XGTACX_site687],9.22
16,AAAACATAAATACATACACACATAATATATATTAAT [CACACA_site109],9.76
17,ATTATAATATTGTTATGTACATAAAAATTATTGAAT [XGTACX_site4476],9.19
18,TGATTCTTTTGTATCACACACACTTAGTTTAATTTT [CACACA_site2404],9.75
19,TTTTTTTATTATCATGCACACATTTTTTTTTTTTAC [CACACA_site2253],9.57

row,Sequence,gcPBM binding intensity (ln)
1,ACTTGACACGGACACACACACATATATAAAAAAAAA [CACACA_site4576],9.87
2,TCCTTTATTTTTAAATGTACAAATATTATCTCCTCA [XGTACX_site5856],9.07
3,ATAATAAAAATAAGAGAATAAAAATGCAATTTAATG [CACACA_negctrl_site878],9.44
4,AACTCACATAAATTCACACAAATGTATATTCATATA [CACACA_site4554],9.23
5,ATTGATCGGATAAAATGTACAAATATATATATATAT [XGTACX_site7345],9.27
6,ATTTATAATGTGTATACACACATATATAGATTTGCT [CACACA_site6440],9.46
7,AAATTATAATATAATACACACATAAAAAAAAAATCA [CACACA_site3634],9.56
8,TATATATATATATATTGTACACATATATATTTACGA [XGTACX_site4791],9.14
9,AATAATACACAATTTTGTACGTATTTAAAATATATT [XGTACX_site45],9.26
10,AATTAAAAACATTTCACACATAAAAATGAAATATAT [CACACA_site5199],9.31
11,TATTTATGAGAAATAGTGCAAAGATATGATCTTTAA,8.9
12,TAAAATATATAATAATGTACATATTTTTATTTAGGA [XGTACX_site4987],9.06
13,AAAAATTACCTGACTTGTACATAATTTAAGAACAAT [XGTACX_site6233],9.13
14,ATAATATATTTATAATGTACATAAGAACAAATTAAA [XGTACX_site1745],9.32
15,ACGTTTGATACACATAAAGTTTTCCTTTGAATGTAC [CACACA_negctrl_site106],9.26
16,GGTATATTAAAATAGGTGCATAAAACTAAGAGAAAA [GTGCAC_site9781],9.41
17,TGTGCTATATTCATATGTACATATAATTATTATATA [XGTACX_site3549],9.31
18,ATAAAATAAAAGTGTACACAAGAAAATATGTTATGT [CACACA_site6033],9.65
19,ATTTGTGATTTGTGTGTGCACGTATTTACAGAACAA [GTGCAC_site9498],9.72

row,Sequence,gcPBM binding intensity (ln)
1,AAGAAAAAATATATATATATATATATATATAATATG [TGCATGCA_negctrl_site417],9.11
2,TTATATTATTTTTATACATGCATTTCTATATATTTT [TGCATGCA_site164],9.57
3,TTCAATTTTTTATGAACACACAAAAAAAAAAAAAAA [CACACA_site2533],8.69
4,ATATATAAGGATGTCACACATAAATATTAACACTAA [CACACA_site5101],9.32
5,TGTATTAATAAAAATACACACATCATATTATAGAAA [CACACA_site7629],9.49
6,TATAAGATTATACAAAGTACATATAAATAATATATT [XGTACX_site1917],9.23
7,ATATATATATAAATATGTACATATATATATTATATA [XGTACX_site120],9.24
8,TCCTCTTTTATTTTTACACACGCGTAAACATATATA [CACACA_site667],9.64
9,TTAAAAAAAGATTATACACACACATATATAAACATA [CACACA_site8136],9.93
10,TGAAATAAAAAATATAGTACTCGTTCGTAACCAAAA [XGTACX_site413],9.26
11,ATGGGTTAAAAATGCACACAAAAAAATATACAGATA [CACACA_site4321],9.75
12,TATATTAAATAAAAAGTGCATGTCTCATAAGATGGA [GTGCAC_site9520],9.19
13,ATAGGGAATTTATGCACACAGTTAAGGGGGAAAATT [CACACA_site5183],9.66
14,ATAAAATGTTAAGGGTGTACTTTACACATCTCCTAT [XGTACX_site4699],9.21
15,TATAAATAAAGCAGTACACACATTTATTTTAGATAC [CACACA_site7566],9.61
16,TTTATACTATAATTATGTACTTATAAAAGGAATAAA [XGTACX_site8027],8.97
17,ATGTAAATACATATATGTACACAAATATATATATAT [XGTACX_site3537],9.36
18,ATAAACACATCTATATGTACATATATATATATATAC [XGTACX_site347],9.41
19,TATATAAATATACATTGTACTCAACATTTTCATTAA [XGTACX_site3690],9.21

# Reference: the supplement of paper PMC11417369
